Out of some 210,000 compounds screened, about 730 (0.35%) were called active. The inconclusive results got no clear call from the source; some entries with a clear call stand among them for comparison. Calls follow the shape of the dose curve; as a rule, active = well fitted inhibition curve with a large enough effect; inconclusive = small, poorly fitted or top-dose-only effect; inactive = no such curve, though single readings can be large or run the other way. A potency beside an inconclusive call is a rough fit, not a confirmed value.
assay: qHTS Assay for Identifying the Cell-Membrane Permeable IMPase Inhibitors: Potentiation with Lithium; details: CHO-M1 cells, IP1 TR-FRET (IP-One), carbachol + lithium; series mostly up to 59.4 µM; activity, negative = IMPase inhibition: at the top concentration; also: nearly all actives have a fitted effect of over 50% in size;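 as to activity, negative = IMPase inhibition: plate controls were basal vehicle for no effect and high inhibitor control for full effect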
How it was run: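 Readout is a homogeneous TR-FRET IP1 immunoassay (Ex 320, Em 665 and 620), where raised cytosolic IP1 lowers signal. Cells were CHO-M1 treated 30 min at 37C with test compounds plus a little lithium; AC50 values came from Hill-equation fitting.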
Potency is read from the fitted curve at half-maximal effect.

Row | Compound | activity, negative = IMPase inhibition | Potency
1 | O=C(NCC(=O)N(Cc1ccccc1)C(C(=O)NC1CCCC1)c1ccco1)c1ccco1 (configuration not stated) | inactive: 38.7% [at 38.3 µM] | 
2 | CCCCNC(=O)CCn1c(=S)[nH]c2cc3c(cc2c1=O)OCO3 |  | inconclusive: 28.2 µM [inhibitor, single point]
3 | CCNc1nc(Oc2ccc(=O)n(C)n2)nc(N2CCOCC2)n1 |  | inconclusive: 12.6 µM [inhibitor, single point]
4 | COc1ccccc1NC(=O)c1oc2ccccc2c1NC(=O)c1ccco1 |  | inconclusive: 12.6 µM [inhibitor, single point]
5 | O=C(Cn1cc([N+](=O)[O-])cn1)Nc1ccn(Cc2c(F)c(F)cc(F)c2F)n1 | inactive: 27.1% [at 38.3 µM] | 
6 | CCOC(=O)c1c(-c2ccccc2)csc1NC(=O)c1ccc(N2C(=O)CCC2=O)cc1 |  | inconclusive: 6.31 µM [inhibitor, partial curve]
7 | CCCOc1ccccc1-n1sc2c(c1=S)-c1cc(OC)cc3c1N(C(=O)C3=O)C2(C)C | inactive: 20.3% [at 38.3 µM] | 
8 | COc1cccc(C2NC(=O)NC(C)=C2C(=O)Nc2ccccc2C)c1 (configuration not stated) | inactive: -9.67% [at 38.3 µM] | 
9 | Cc1cccc(NC(=O)COC(=O)c2ccc3c(c2)OCO3)c1C |  | inconclusive: 22.4 µM [inhibitor, single point]
10 | Cc1noc(/C=C/c2ccco2)c1S(=O)(=O)N1CCC(C(=O)N(C)Cc2ccccc2)CC1 | inactive: 8.27% [at 38.3 µM] | 
11 | Cc1cc2ncn(C(=O)c3ccc4c(c3)OCO4)c2cc1C |  | inconclusive: 28.2 µM [inhibitor, single point]
12 | CCOc1ccc(/C=C/C(=O)c2ccc(-c3ccccc3)cc2)cc1 | inactive: -3.69% | 
13 | CC(C)(C)CC(=O)Nc1nnc(-c2cccs2)s1 |  | active: 11.2 µM
14 | COC(=O)Cn1c(=NC(=O)c2nc3ccccc3s2)sc2cc(S(C)(=O)=O)ccc21 |  | active: 6.31 µM
15 | Cc1ccc2nc(SCCC(=O)O)cc(C)c2c1 |  | inconclusive: 12.6 µM [inhibitor, single point]
16 | Cn1c(=O)c2[nH]c(COCc3nc4c([nH]3)c(=O)n(C)c(=O)n4C)nc2n(C)c1=O | inactive: -6.82% | 
17 | CC(C)c1cc(N2CCC(=O)NC2=O)cc(C(=O)O)c1O | inactive: -7.69% | 
18 | Cn1c(Oc2ccccc2NCc2cccc(Br)c2)cc(=O)n(C)c1=O |  | inconclusive: 0.794 µM [inhibitor, full curve, poor fit]
19 | COc1ccc(C)cc1NC(=O)CSc1nnc(-c2ccc(Br)cc2)o1 |  | inconclusive: 12.6 µM [inhibitor, single point]
20 | COc1cccc(-c2ccc(C#N)c(SCC(=O)NCCc3ccc(Cl)cc3)n2)c1 |  | inconclusive: 28.2 µM [inhibitor, single point]
21 | Nc1nnc(SCC(=O)Nc2sc3c(c2C(=O)c2ccccc2)CCCC3)s1 | inactive: 13.7% | 
22 | CCOC(=O)CSc1cc(CS(=O)(=O)c2ccccc2)nc(-c2ccccc2)n1 |  | inconclusive: 28.2 µM [inhibitor, single point]
23 | CCCCn1c(=O)nc2n(-c3ccc(OC)cc3)c3ccccc3cc-2c1=O |  | inconclusive: 14.1 µM [inhibitor, single point]
24 | O/N=C(\c1ccc(Cl)cc1Cl)c1ncc(C(F)(F)F)cc1Cl | inactive: 27.5% [at 38.3 µM] | 

Row | Compound | activity, negative = IMPase inhibition | Potency
25 | CCOCCCNC(=O)Cn1ncc2c(=O)oc3ccccc3c21 |  | inconclusive: 22.4 µM [inhibitor, single point]
26 | Cc1cc(=O)oc2c(CN3CCN(C)CC3)c(O)c(Cl)cc12 |  | active: 12.6 µM
27 | N#CCSc1ncnc2sc3c(c12)CCC3 |  | inconclusive: 31.6 µM [inhibitor, single point]
28 | CCn1c(C)csc1=NC(=O)c1ccccc1O |  | inconclusive: 10 µM [inhibitor, single point]
29 | Cc1[nH]c2ccccc2c1N=Nc1cccc(C(=O)O)c1 | inactive: -3.37% | 
30 | Cc1ccc(NC(=O)Cn2cc(C(F)(F)F)cc(Cl)c2=O)cc1Cl |  | inconclusive: 14.1 µM [inhibitor, single point]
31 | COc1cc(OC)cc(-c2nnc(SCC(=O)N(C(C)C)C(C)C)o2)c1 |  | inconclusive: 28.2 µM [inhibitor, single point]
32 | O=C(CCCCCn1c(=S)[nH]c2cc3c(cc2c1=O)OCO3)N1CCN(C2CCCCC2)CC1 | inactive: 6.97% [at 38.3 µM] | 
33 | COC(=O)c1ccc(CSc2ncnc3c2oc2ccccc23)o1 |  | inconclusive: 28.2 µM [inhibitor, single point]
34 | CC1CCc2c(nc3sc4c(c3c2N)CCCC4)C1 (configuration not stated) |  | inconclusive: 28.2 µM [inhibitor, single point]
35 | COc1cc2nc(CN3CCN(S(=O)(=O)c4ccc(C)c(C)c4)CC3)[nH]c(=O)c2cc1OC |  | inconclusive: 25.1 µM [inhibitor, single point]
36 | CC(C)(C)C(=O)N1CCN(c2nc3ccccc3o2)CC1 |  | inconclusive: 5.01 µM [inhibitor, full curve]
37 | Fc1ccc(Br)cc1C1C=C(c2ccc(Br)s2)Nc2ncnn21 (configuration not stated) |  | inconclusive: 10 µM [inhibitor, single point]
38 | Cc1ccc(C(=O)NC(=S)Nc2ccc(-c3cc4ccccc4oc3=O)cc2)c(C)c1 |  | inconclusive: 28.2 µM [inhibitor, single point]
39 | O=C(c1cc2c(s1)-c1ccccc1OC2)N1CCN(c2ccccn2)CC1 |  | active: 10 µM
40 | CCCCCC(=O)/C=C/C=C\CCCCCCCC(=O)O |  | inactive
41 | O=C(Nc1ccnc(-c2ccncc2)n1)C1CC1 |  | inconclusive: 28.2 µM [inhibitor, single point]
42 | COc1cccc(C2/C(=C(\O)c3ccc(OC)c(OC)c3)C(=O)C(=O)N2c2cc(C)on2)c1 (configuration not stated) |  | active: 10 µM
43 | Cn1c(-c2cccc(OCc3ccccc3)c2)nc2c1c(=O)[nH]c(=O)n2Cc1ccccc1 |  | inconclusive: 12.6 µM [inhibitor, single point]
44 | O=C(COc1ccccc1)Nc1ccc(-c2nnc(-c3ccco3)o2)cc1 |  | active: 12.6 µM
45 | Fc1ccc(COc2cccc(-c3n[nH]c(=S)o3)c2)cc1 |  | inconclusive: 31.6 µM [inhibitor, single point]
46 | Cc1cccc(N2CCN(Cc3cn(C)nc3-c3ccccc3F)CC2)n1 | inactive: 13.1% | 
47 | S=c1[nH]nc(-c2cccc(Br)c2)o1 |  | active: 10 µM
48 | O=C(Cn1sc2ccccc2c1=O)NC12CC3CC(CC(C3)C1)C2 | inactive: 29.3% [at 38.3 µM] | 

Row | Compound | activity, negative = IMPase inhibition | Potency
49 | COc1cc(C(=O)Nc2cc(-c3cn4cccnc4n3)ccc2C)cc(OC)c1OC |  | inconclusive: 8.91 µM [inhibitor, partial curve]
50 | Cc1cc(Br)ccc1NC(=O)CNC(=O)Cn1ncc(Cl)c(Cl)c1=O |  | inconclusive: 28.2 µM [inhibitor, single point]
51 | CN(C)S(=O)(=O)c1ccc(C(=O)NCc2ccc3[nH]c4c(c3c2)CCCC4)cc1 |  | inconclusive: 5.01 µM [inhibitor, single point]
52 | Cc1ccc2cc(C)c3nnc(SCC(=O)N4CCCc5ccccc54)n3c2c1C | inactive: 17.7% [at 38.3 µM] | 
53 | Cc1c(NC(=O)c2cc(-n3cnnc3)ccc2Cl)cccc1-c1nc2ccccc2s1 |  | inconclusive: 28.2 µM [inhibitor, single point]
54 | CN(C)c1nnnn1-c1ccc(Oc2ccccc2)cc1 |  | inconclusive: 4.47 µM [inhibitor, single point]
55 | Fc1cccc(-n2c(-c3ccco3)nc3nc4ccccc4nc32)c1 |  | inconclusive: 2.82 µM [inhibitor, partial curve]
56 | CCOC(=O)c1c(NC(=O)C2C3CCC(O3)C2C(=O)O)sc(C)c1-c1ccc(F)cc1 (configuration not stated) |  | inconclusive: 11.2 µM [inhibitor, partial curve]
57 | CCc1c(SCCC(=O)O)nc2ccccc2c1C |  | inconclusive: 10 µM [inhibitor, single point]
58 | CCc1nnc(NC(=O)CSc2ncnc3c2cnn3-c2ccc(OC)cc2)s1 |  | active: 10 µM
59 | Cc1ccc(-n2ncc(Br)c(Br)c2=O)cc1 |  | inconclusive: 11.2 µM [inhibitor, single point]
60 | CCCSc1nc2c3c(sc2c(=O)[nH]1)CC(C)(CC)OC3 (configuration not stated) |  | inconclusive: 28.2 µM [inhibitor, single point]
61 | COCCn1c(=O)c(-c2ccccc2)nc2cnc(N(C)C)nc21 |  | inconclusive: 8.91 µM [inhibitor, partial curve]
62 | Cc1cccc(-n2c(SCC(N)=O)nc3c(c2=O)C2(CCCC2)Cc2ccccc2-3)c1 |  | inconclusive: 10 µM [inhibitor, single point]
63 | COc1cc(C)c(/C=C(\C#N)C(=O)Nc2cccc(C)c2)cc1C(C)C |  | inconclusive: 28.2 µM [inhibitor, single point]
64 | CC1=C(C#N)C(c2ccoc2)C(C(=O)OCc2ccccc2)=C(N)S1 (configuration not stated) | inactive: 2.8% | 
65 | CC(=O)NC(C)C(c1cccs1)N1CCN(c2ccccc2)CC1 (configuration not stated) | inactive: 19.1% [at 38.3 µM] | 
66 | CC(=O)NCCNc1nc(-c2ccccc2C)nc2ccccc12 | inactive: 4.01% | 
67 | O=C(Nc1nc(-c2ccccc2)nc2ccccc12)c1ccc(F)cc1 |  | inconclusive: 28.2 µM [inhibitor, single point]
68 | CCOc1cccc(Nc2cc3n(c(=O)n2)CCc2cc(OC)c(OC)cc2-3)c1 |  | inconclusive: 14.1 µM [inhibitor, single point]
69 | CCN(CC)C(=O)CSc1nc2ccccc2c(=O)n1CCC(=O)NCCc1ccc(OC)c(OC)c1 |  | inconclusive: 22.4 µM [inhibitor, single point]
70 | O=C(Cc1ccc(Cl)cc1)Nc1ccc(NC(=O)c2ccccc2)cc1 |  | inconclusive: 28.2 µM [inhibitor, single point]
71 | Nc1c(C(=O)NC2CCCC2)sc2nc(-c3cccs3)ccc12 |  | inconclusive: 22.4 µM [inhibitor, single point]
72 | O=C(CSc1ncnc2sc3c(c12)CCCC3)N1CCC(c2noc3ccc(F)cc23)CC1 |  | inconclusive: 28.2 µM [inhibitor, single point]

Source: PubChem BioAssay AID1457 (National Center for Advancing Translational Sciences (NCATS), 2008)
